Measurements as given in patent US20240002383A1 (priority 2021, published 2024).

What was measured:
[1] = system: SARS-CoV-2 RBD; settings: mouse, in vivo
[2] = system: SARS-CoV-2 RBD; settings: rabbit, in vivo

Compound | production of the RBD-specific IgG2a antibodies (in words) [1] | immune response in mice (TH1 / TH2; cellular and humoral), in words [1] | binding antibodies relative to Alum (in words) [2]
CCn1nc(C)cc1C(=O)Nc1nc2cc(C(N)=O)cnc2n1C/C=C/Cn1c(NC(=O)c2cc(C)nn2CC)nc2cc(C(N)=O)cc(OCCCN3CCOCC3)c21 [CF501, (E)-3-(4-(5-carbamoyl-2-(1-ethyl-3-methyl-1H-pyrazole-5-carboxamido)-7-(3-morpholinopropoxy)-1H-benzo[d]imidazol-1-yl)but-2-en-1-yl)-2-(1-ethyl-3-methyl-1H-pyrazole-5-carboxamido)-3H-imidazo[4,5-b]pyridine-6-carboxamide] | can potently activate the production of the RBD-specific IgG2a antibodies |  | 
CCn1nc(C)cc1C(=O)Nc1nc2cc(C(N)=O)ccc2n1C/C=C/Cn1c(NC(=O)c2cc(C)nn2CC)nc2cc(C(N)=O)cnc21 [CF502, (E)-3-(4-(5-carbamoyl-2-(1-ethyl-3-methyl-1H-pyrazole-5-carboxamido)-1H-benzo[d]imidazol-1-yl)but-2-en-1-yl)-2-(1-ethyl-3-methyl-1H-pyrazole-5-carboxamido)-3H-imidazo[4,5-b]pyridine-6-carboxamide] |  | can significantly improve the TH1 and TH2 immune responses in mice | could not induce more potent binding antibodies relative to Alum in the rabbits
CCn1nc(C)cc1C(=O)Nc1nc2cc(C(N)=O)cnc2n1C/C=C/Cn1c(NC(=O)c2cc(C)nn2CC)nc2cc(C(N)=O)cc(OCCCN3CCNCC3)c21 [CF508, (E)-3-(4-(5-carbamoyl-2-(1-ethyl-3-methyl-1H-pyrazole-5-carboxamido)-7-(3-(piperazin-1-yl)propoxy)-1H-benzo[d]imidazol-1-yl)but-2-en-1-yl)-2-(1-ethyl-3-methyl-1H-pyrazole-5-carboxamido)-3H-imidazo[4,5-b]pyridine-6-carboxamide] |  | can significantly improve the TH1 and TH2 immune responses in mice | could not induce more potent binding antibodies relative to Alum in the rabbits
CCn1nc(C)cc1C(=O)Nc1nc2cc(C(N)=O)cnc2n1C/C=C/Cn1c(NC(=O)c2cc(C)nn2CC)nc2cc(C(N)=O)cc(OCCN3CCOCC3)c21 [CF510, (E)-3-(4-(5-carbamoyl-2-(1-ethyl-3-methyl-1H-pyrazole-5-carboxamido)-7-(2-morpholinoethoxy)-1H-benzo[d]imidazol-1-yl)but-2-en-1-yl)-2-(1-ethyl-3-methyl-1H-pyrazole-5-carboxamido)-3H-imidazo[4,5-b]pyridine-6-carboxamide] |  | can significantly improve the TH1 and TH2 immune responses in mice | could not induce more potent binding antibodies relative to Alum in the rabbits
CCn1nc(C)cc1C(=O)/N=c1\n(C)c2cc(C(N)=O)cnc2n1C/C=C/Cn1/c(=N/C(=O)c2cc(C)nn2CC)n(C)c2cc(C(N)=O)cc(OCCCN3CCOCC3)c21 [CF512, (E)-3-((E) 4-((E)-5-carbamoyl-2-((1-ethyl-3-methyl-1H-pyrazole-5-carbonyl)imino)-3-methyl-7-(3-morpholinopropoxy)-2,3-dihydro-1H-benzo[d]imidazol-1-yl)but-2-en-1-yl)-2-((1-ethyl-3-methyl-1H-pyrazole-5-carbonyl)imino)-1-methyl-2,3-dihydro-1H-imidazo[4,5-b]pyridine-6-carboxamide] | can potently activate the production of the RBD-specific IgG2a antibodies |  | could not induce more potent binding antibodies relative to Alum in the rabbits
